Measured values reported in US20260200947A1, “FUSED CYCLIC COMPOUNDS AND USE THEREOF” (Jacobio Pharmaceuticals Co., Ltd., priority 2022, published 2026).

Compound	pIC50 (SW620 cells (K-Ras G12V))	pIC50 (AGS cells (K-Ras G12D))
C#Cc1c(F)ccc2cc(N)cc(-c3nc4c5c(nc(OC[C@@]67CCCN6C[C@H](F)C7)nc5c3F)N3CC(F)CCCC3N4C)c12 (some centres unmarked) [Compound 47]	8.13	
C#Cc1c(F)ccc2cc(N)cc(-c3nc4c5c(nc(OC[C@@]67CCCN6C[C@H](F)C7)nc5c3F)N3[C@@H](COCC[C@@H]3C3CC3)CO4)c12 [Compound 64]		9.04

pIC50: −log10 of the molar value.
